The values that follow come from publication PMC11827847, “Neuropilin-1 inhibition suppresses nerve growth factor signaling and nociception in pain models” (The Journal of Clinical Investigation, 2024).

The target in the experiment is T1, NRP1 (residues 22–644), extracellular a1a2b1b2 domain of human NRP1 (human, UniProt O14786 22-644).
T1 construct: neuropilin-1, human, residues 22-644, extracellular a1a2b1b2 domains; also called recombinant NRP1; neuropilin-1
T1 sequence (looked up): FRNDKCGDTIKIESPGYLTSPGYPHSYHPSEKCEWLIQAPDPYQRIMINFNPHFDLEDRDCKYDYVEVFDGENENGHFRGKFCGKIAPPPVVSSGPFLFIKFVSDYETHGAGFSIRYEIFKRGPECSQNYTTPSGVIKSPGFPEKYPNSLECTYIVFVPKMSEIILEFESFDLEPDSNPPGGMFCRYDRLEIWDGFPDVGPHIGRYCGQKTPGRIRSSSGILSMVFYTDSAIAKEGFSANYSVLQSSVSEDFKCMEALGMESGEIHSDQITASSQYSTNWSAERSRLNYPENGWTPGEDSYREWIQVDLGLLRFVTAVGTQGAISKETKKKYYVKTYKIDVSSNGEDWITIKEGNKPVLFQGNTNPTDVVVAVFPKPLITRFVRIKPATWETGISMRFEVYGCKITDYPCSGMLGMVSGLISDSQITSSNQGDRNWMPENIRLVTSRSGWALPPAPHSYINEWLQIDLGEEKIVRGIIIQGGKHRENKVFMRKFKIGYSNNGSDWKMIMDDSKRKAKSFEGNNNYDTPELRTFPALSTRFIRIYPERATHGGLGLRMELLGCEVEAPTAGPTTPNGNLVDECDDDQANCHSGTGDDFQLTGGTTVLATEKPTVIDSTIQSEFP
Description: MST; fluorescent human βNGF with NRP1 (residues 22–644) or staphylokinase; conditions only in the Supplemental Methods. The following applies: both partners purified.

B1: fluorescent human βNGF (ligand)
chain: not shown
modifications: fluorescent label (kind and site not stated)
notes: beta-nerve growth factor, human, mature βNGF; Also used for the functional rows, where the test system held mouse NGF; also called fluorescent human NGF; fluorescent NGF
For orientation: Kd means the equilibrium constant for the complex coming apart. Lower therefore signals a tighter complex. Consider B1, for which the affinity, expressed as Kd, was 35.5 ± 4.7 nM.
